# The campaign covered roughly 310,000 compounds. About 2,200 (0.71%) showed an effect of 50% or more. The effect is printed as a negative number. The list shows a part of the results.
# Target: human ether-à-go-go-related gene (hERG) potassium channel (human, UniProt Q12809)
# Assay: primary screen, population patch clamp on CHO cells stably expressing hERG
# human ether-à-go-go-related gene (hERG) potassium channel, sequence (Q12809 whole entry, looked up): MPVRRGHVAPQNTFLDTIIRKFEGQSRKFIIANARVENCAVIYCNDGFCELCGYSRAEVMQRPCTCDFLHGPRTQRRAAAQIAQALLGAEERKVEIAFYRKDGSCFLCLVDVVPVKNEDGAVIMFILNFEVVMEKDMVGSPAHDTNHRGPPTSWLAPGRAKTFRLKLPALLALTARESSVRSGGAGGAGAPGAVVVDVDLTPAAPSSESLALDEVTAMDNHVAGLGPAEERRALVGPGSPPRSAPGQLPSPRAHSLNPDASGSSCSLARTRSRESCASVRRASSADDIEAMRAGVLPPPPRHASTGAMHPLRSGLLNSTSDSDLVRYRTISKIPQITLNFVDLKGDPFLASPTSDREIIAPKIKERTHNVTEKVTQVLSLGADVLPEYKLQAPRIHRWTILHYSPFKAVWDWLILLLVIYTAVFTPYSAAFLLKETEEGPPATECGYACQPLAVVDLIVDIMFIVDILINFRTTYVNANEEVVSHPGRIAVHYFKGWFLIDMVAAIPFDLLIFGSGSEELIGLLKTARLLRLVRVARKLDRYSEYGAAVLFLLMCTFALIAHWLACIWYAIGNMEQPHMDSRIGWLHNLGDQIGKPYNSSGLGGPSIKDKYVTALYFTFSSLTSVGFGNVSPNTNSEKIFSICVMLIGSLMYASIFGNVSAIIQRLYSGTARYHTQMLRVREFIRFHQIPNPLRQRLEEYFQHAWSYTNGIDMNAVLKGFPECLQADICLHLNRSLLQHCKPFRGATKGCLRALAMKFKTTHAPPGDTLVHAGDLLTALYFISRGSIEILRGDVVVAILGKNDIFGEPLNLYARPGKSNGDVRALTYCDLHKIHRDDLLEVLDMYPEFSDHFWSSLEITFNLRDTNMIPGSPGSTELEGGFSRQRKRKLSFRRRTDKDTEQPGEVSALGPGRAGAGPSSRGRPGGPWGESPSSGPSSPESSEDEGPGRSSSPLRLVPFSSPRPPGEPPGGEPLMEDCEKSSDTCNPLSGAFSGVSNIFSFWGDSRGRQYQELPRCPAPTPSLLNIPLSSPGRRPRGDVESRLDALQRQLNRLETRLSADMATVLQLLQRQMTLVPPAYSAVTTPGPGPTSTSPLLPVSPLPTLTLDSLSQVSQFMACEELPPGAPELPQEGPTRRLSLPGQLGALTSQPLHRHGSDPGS
row,Structure (SMILES),"hERG current change (%, negative = inhibition) at 1uM [%]"
1,Cc1ccc(C(=O)CSc2nnc3c4ccccc4nc(Cc4ccccc4)n23)cc1,10.8
2,CC(C)(C)c1cc(CCC(=O)NCc2ccncc2)cc(C(C)(C)C)c1O,5.65
3,COC(=O)c1sccc1NC(=O)CSc1nnnn1-c1ccccc1C,6.69
4,COc1ccc(NC(=S)N2CCN(C(=O)C3CCCO3)CC2)cc1 (stereo not shown),0.786
5,Clc1ccccc1Cc1noc(CN2CCN(Cc3ccccn3)CC2)n1,11
6,CNC(=S)Nc1cccc(S(=O)(=O)NC2=NCCC2)c1,-5.3
7,C#CCOc1ccc(/C=C2\SC(=S)N(Cc3cccnc3)C2=O)cc1,19.2
8,O=C(CCCN=C1NS(=O)(=O)c2ccccc21)OCc1ccccc1,-14.4
9,CCn1c(=O)c([N+](=O)[O-])c(NC2CCS(=O)(=O)C2)c2ccccc21 (stereo not shown),8.5
10,OCCCN=C1CCCc2c1[nH]c1ccc(Cl)cc21,-0.96
11,CC1=CCC(C(=O)O)C(C(=O)Nc2nc3ccc(S(C)(=O)=O)cc3s2)C1 (stereo not shown),12.4
12,Cn1c(CNS(=O)(=O)c2cccc(Cl)c2)cc(=O)n(C)c1=O,15.7
13,COc1ccc(CN2CCNCC2)c(OC)c1OC.Cl,16.3
14,CCc1c(C(=O)NNC(=S)NCC(C)C)csc1C,2.49
15,Cc1nn(CC(=O)N/N=C/c2ccc3c(c2)OCO3)c(C)c1Br,15.2
16,S=C(Nc1ccc(Cl)cc1)N(CCCN1CCOCC1)Cc1cccs1,-4.13
17,CCOc1ccc(NC(=O)Nc2cc(C)ccc2F)cc1,-5.76
18,O=C(NCCc1csc(-c2cccnc2)n1)c1c(F)cccc1F,15.6
19,COc1ccc(OC)c(CN2CCCC(C(=O)N3CCCCC3)C2)c1.O=C(O)C(=O)O (stereo not shown),-4.96
20,CSc1cccc(NC(=O)CN(c2cccc(C)c2)S(C)(=O)=O)c1,-12.9
21,Cc1ccc(C2C(C(=O)c3cc4ccccc4o3)=C(O)C(=O)N2CCN2CCOCC2)cc1 (stereo not shown),25.1
22,CC(=O)c1c(C)nc(-c2ccc(OCC(=O)Nc3cccc(C)c3C)cc2)n1O,7.08

row,Structure (SMILES),"hERG current change (%, negative = inhibition) at 1uM [%]"
1,O=C(O)c1cc(N/N=C/c2ccc(-c3ccc(F)cc3)o2)ccc1Cl,8.72
2,CCc1cc(=O)[nH]c(SCCc2ccccc2)n1,10.3
3,O=C(COC(=O)C1CCC1)Nc1ccc(Oc2ccccc2)cc1,12.5
4,O=C(CCc1nc(-c2ccccc2F)no1)NCCN1CCN(Cc2ccccc2)CC1,-15.5
5,Cc1ccc(NS(=O)(=O)c2ccc(NC(=O)CN(c3cc([N+](=O)[O-])ccc3C)S(C)(=O)=O)cc2)c(C)c1,-11.1
6,CN1CCN(c2ccc(C=O)cc2)CC1,-1.88
7,Cc1c(C#N)c(N=CN(C)C)c(C(=O)c2ccccc2)n1-c1ccc(Br)cc1,-5.19
8,COc1cc(-c2nc3cc(C)ccn3c2NC2CCCCC2)ccc1-c1ccc(C(C)=O)cc1.O=C(O)C(F)(F)F,2.27
9,CC(C)OC(=O)/C(C#N)=C/c1c[nH]c2ccccc12,12
10,Nc1cccc(/C=C/c2ccncc2)c1,10.9
11,COc1ccc(-c2nn(-c3ccccc3)cc2C(=O)NC(=S)NNC(=O)c2ccncc2)cc1,11.2
12,O=C1CCC(=O)N1CNc1ccccn1,10.9
13,CC(C)NC(=O)c1ccccc1NC(=O)Cc1ccc([N+](=O)[O-])cc1,-4.56
14,CCOC(=O)c1ccc(-n2c(O)c(/C=N/NC(=O)C3COc4ccccc4O3)c3ccccc3c2=O)cc1 (stereo not shown),1.15
15,COCCC(=O)N1CCC(Oc2ccc(C(=O)NCCCC3CCCC3)cc2)CC1,-3.93
16,Cn1c(N)c(C(=O)COC(=O)CCCc2c[nH]c3ccccc23)c(=O)n(C)c1=O,1.88
17,CC(=O)c1c(O)c2ccccc2n(Cc2ccccc2)c1=O,3.13
18,O=C(O)c1cccc([N+](=O)[O-])c1C(=O)Nc1ccc2ccccc2c1,3.62
19,Cc1cc(/C=N/n2cnnc2)c(O)c([N+](=O)[O-])c1,2.4
20,O=[N+]([O-])c1ccc(CN2CCN(c3ccc([N+](=O)[O-])cc3)CC2)cc1,-38
21,Cc1ccccc1NC(=O)C(C)Sc1nnc(-c2ccncc2)n1CC1CCCO1 (stereo not shown),15.7
22,O=C(/C=C/c1ccc2c(c1)OCO2)N1CCN(c2ccc(Cl)cc2)CC1,14.2

row,Structure (SMILES),"hERG current change (%, negative = inhibition) at 1uM [%]"
1,CC(C)c1ccc(C(O)Cc2nc3ccccc3n2C)cc1 (stereo not shown),10.4
2,CC1(C)Cc2ccccc2-c2nc(NCCCO)[nH]c(=O)c21,-9.11
3,C=CCn1c(SCC(=O)NCC2CCCO2)nc2scc(-c3ccco3)c2c1=O (stereo not shown),-13.2
4,CCn1c(C)nc2cc(C(=O)N=Nc3c(O)[nH]c4c(C)cc(C)cc34)ccc21,14.6
5,CCN(CC)S(=O)(=O)c1ccc(Oc2cccc(C(C)=O)c2)nc1,3.84
6,O=C1CN(C(=O)CSc2nnc(-c3ccccc3)n2Cc2ccc3c(c2)OCO3)c2ccccc2N1,5.59
7,COc1ccc(N2CCN(C(=O)C3(S(=O)(=O)c4ccc(C)cc4)CC3)CC2)cc1,-7.35
8,Cc1cccc(CNC(=O)c2ccc3nc(Cc4ccccc4F)oc3c2)n1,12.7
9,O=C(Nc1ccc(Cl)cc1)OCc1cncs1,-6.49
10,O=C(CCCCCn1c(SCC(=O)c2ccccc2)nc2ccccc2c1=O)NCc1ccco1,14.7
11,Cc1cc(C)cc(N2C(=O)CSC2c2ccccn2)c1 (stereo not shown),3.92
12,O=C(Nc1ccc(F)cc1F)c1cc(=O)n(-c2ccccc2)c(=O)[nH]1,6.03
13,CCN(C1CCCCC1)S(=O)(=O)c1ccc(-n2cnnn2)c(C)c1,9.55
14,O=C(CSCc1cccc(Cl)c1)N/N=C/c1ccc(OCC(=O)N2CCCCC2)cc1,4.16
15,CC(CCc1ccccc1)NC(=O)COc1cc(F)ccc1[N+](=O)[O-] (stereo not shown),-0.81
16,O=C(Nc1ccnn1C1CCN(C2CCC2)CC1)c1cccc(F)c1,1.12
17,COc1cc2[nH]c(=O)c(C(=O)NCc3ccccc3Cl)c(O)c2cc1OC,8.46
18,CCN(CC)S(=O)(=O)c1cccc(NC(=O)COC(=O)CCC(=O)c2cccs2)c1,6.29
19,CN1CCCN(S(=O)(=O)c2ccc(O)c(C(=O)O)c2)CC1.Cl,9.33
20,COc1ccc(C(=O)N/N=C/c2sc(N3CCOCC3)nc2-c2ccccc2)cc1OC,3.64
21,O=C(O)CCC(=O)Nc1ccc(OCC2CCCO2)cc1 (stereo not shown),20.1
22,CCN(CC)S(=O)(=O)c1cccc(C(=O)N/N=C/c2c(C)nn(-c3ccccc3)c2Cl)c1,14.5

row,Structure (SMILES),"hERG current change (%, negative = inhibition) at 1uM [%]"
1,COCCN(CCOc1cc(C)cc(C)c1)Cc1ccc(Cl)cc1,16.8
2,COc1ccc(NC(=O)N(Cc2ccc3c(c2)OCO3)C2CC(=O)N(c3ccc(OC)cc3)C2=O)cc1 (stereo not shown),-7.51
3,O=C(c1ccccc1F)N(NC(=O)C(O)(c1ccccc1)c1ccccc1)c1ccccc1,11.7
4,Cc1cc(C)cc(Nc2cc(C)nc3nc(C)nn23)c1,-0.195
5,CCO[C@@H]1OC(C(=O)O)=C[C@H](c2ccc3c(c2)OCO3)[C@H]1CCCO,16.1
6,CSc1ccc(CN(C)CCc2ccccn2)cc1.O=C(O)C(=O)O,-21.3
7,O=C(Cn1cnc2ccccc21)N1CCN(S(=O)(=O)c2ccccc2)CC1,11
8,CCN(CC)Cc1ccc(OC)c(Cl)c1.Cl,4.41
9,CC(=O)Nc1ccc(S(=O)(=O)NNC(=O)C2CCCCC2)cc1,0.824
10,CCCC(C)NC(=O)c1ccccc1SC (stereo not shown),9.4
11,CCOCC(=O)Nc1ccc(C(=O)Nc2ccccc2Cl)cc1,10
12,CCN(c1ccc(C)cc1C)S(=O)(=O)c1nnc(NC(=O)C(C)(C)C)s1,13.1
13,CCN(CC)S(=O)(=O)c1ccc(Cl)c(NC(=O)c2ccccc2C)c1,10.8
14,O=C(COC(=O)c1cc2c(s1)CCC2)Nc1ccc(F)cc1,13.3
15,Cc1ccc2c(c1)N(C(=O)CCC(=O)NCCCN1CC(C)CC(C)C1)CCO2 (stereo not shown),-26.2
16,Cn1c(N)c(C(=O)/C=C/c2ccccc2)c(=O)[nH]c1=O,7.55
17,S=C(Nc1ccccc1)N1CCN(Cc2ccccc2)CC1,6.14
18,CC1CCCN(CCC(=O)Nc2ccccc2)C1.Cl (stereo not shown),12.3
19,COc1ccc(-c2csc(-n3ncc(-c4ccccn4)c3N)n2)cc1,13.5
20,CCOC(=O)C1CCN(C(=O)c2ccc3c(c2)OCO3)CC1,4.64
21,COc1cccc(NC(=O)c2ccc3c(SCC(=O)O)c4c(nc3c2)CCCC4)c1,3.61
22,CCCCC(CC)C(=O)Nc1ccc(S(=O)(=O)N2CCCC2)cc1 (stereo not shown),8.72
